Measurements: PubChem BioAssay AID2451 (National Center for Advancing Translational Sciences (NCATS), 2010)
In all, about 290,000 compounds went through this assay and about 2,100 (0.72%) were called active. Inconclusive means that the source gave no clear call. Such entries were picked first, then a sample of the others. Calls come from the whole dose curve; as a rule, active = well fitted inhibition curve with a large enough effect; inconclusive = small, poorly fitted or top-dose-only effect, or effect the other way; inactive = flat fitted curve, though single readings scatter. Potencies of inconclusive entries are doubtful fits and often do not repeat.

Biological target: Fructose-bisphosphate aldolase (Giardia intestinalis (strain ATCC 50803 / WB clone C6)) (UniProt A8B2U2)
Test: qHTS Assay for Inhibitors of Fructose-1,6-bisphosphate Aldolase from Giardia Lamblia; note: nearly all actives have a fitted effect of over 55% in size
Conditions: purified Giardia FBPA; series mostly up to 59.6 µM
Method in brief: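 40 nM FBPA preincubated 10 min at RT with compound (up to 57.5 uM final), then substrate plus GAPDH/TPI/NAD/arsenate coupling and diaphorase/resazurin added. Fluorescence read after 20 min at RT, 525/598 nm.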
Potency is the fitted concentration of half-maximal effect; tags give direction and shape of the fitted curve.

Chain of UniProt A8B2U2 (A8B2U2 whole entry, looked up): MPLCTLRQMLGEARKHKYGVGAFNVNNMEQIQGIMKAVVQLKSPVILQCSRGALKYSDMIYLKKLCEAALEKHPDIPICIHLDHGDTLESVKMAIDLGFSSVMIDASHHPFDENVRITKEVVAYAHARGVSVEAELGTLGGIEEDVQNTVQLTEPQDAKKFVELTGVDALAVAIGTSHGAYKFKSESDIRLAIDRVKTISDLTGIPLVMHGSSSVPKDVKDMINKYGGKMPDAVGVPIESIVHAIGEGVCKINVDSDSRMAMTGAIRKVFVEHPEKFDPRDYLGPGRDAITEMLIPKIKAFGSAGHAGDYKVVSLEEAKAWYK

| Compound | Potency |
| --- | --- |
| Cn1nc(C(F)(F)F)c(-c2ccc(Br)cc2)c1NC(=O)Nc1ccc(F)cc1F | inactive |
| Nc1c(C(=O)NCc2ccco2)c2nc3ccccc3nc2n1Cc1ccc(F)cc1 | inconclusive: 8.89 µM [inhibitor, partial curve] |
| O=C(NCn1ccc(=O)[nH]c1=S)c1ccccc1 | inconclusive: 7.08 µM [inhibitor, partial curve] |
| Cn1c(=O)[nH]c(=O)c2c1[nH]c(=S)n2Cc1ccccc1 | active: 8.91 µM |
| CC(Nc1cccc2ccccc12)C(=O)N/N=C/c1ccc([N+](=O)[O-])cc1 (stereo not drawn) | inconclusive: 1.99 µM [inhibitor, full curve] |
| COc1ccc(-c2cn3cc(C(=O)NN)ccc3n2)cc1 | inactive |
| CC(=O)OC1CC[C@]2(C#N)[C@H]3CC[C@]4(C)[C@H](C5C=CC(=O)O5)CCC4(O)C3CCC2(O)C1 (stereo partly drawn) | inactive |
| NC(=O)c1c(NC(=O)c2c(F)cccc2F)sc2c1CCN(Cc1ccccc1)C2 | inconclusive: 22.4 µM [inhibitor, partial curve] |
| CC1CCN(CC(=O)c2cccc(C(F)(F)F)c2)CC1 | inconclusive: 25.1 µM [inhibitor, partial curve] |
| COC(=O)c1ccc(NC(=S)NCC2CC2)cc1 | inactive |
| O=C(c1ccncc1)N1CCC2(CC1)CN(c1cccc(-c3ccccc3)c1)C2 | inactive |
| O=C(CN1CCN(C2CCCCC2)CC1)NCCC1=CCCCC1 | inconclusive: 11.2 µM [inhibitor, partial curve] |
| Cc1cccc(NC(=O)NC(=O)c2ccccc2)n1 | inactive |
| O=C(O)C(C(=O)/C=C/c1ccco1)=C1SCCS1 | inactive |
| c1ccc(CN(Cc2ccco2)C(c2ccncc2)c2nnnn2C2CCCC2)cc1 (stereo not drawn) | inconclusive: 17.7 µM [inhibitor, single point] |
| Nc1ccc(O)c(C(=O)O)c1 | active: 3.54 µM |
| Nc1ccc2oc3ccc(N)cc3c(=O)c2c1 | inconclusive: 0.397 µM [inhibitor, full curve] |
| CCC(c1nnnn1Cc1ccco1)N(CCc1ccccc1)Cc1cc2cc(C)ccc2[nH]c1=O (stereo not drawn) | inconclusive: 17.7 µM [inhibitor, single point] |
| CSc1ccc(CN(C)CC(=O)Nc2c(F)cccc2F)cc1 | active: 19.9 µM |
| COc1ccc(C(=O)NC(CC(=O)O)c2cc([N+](=O)[O-])ccc2Cl)c(SC)c1 (stereo not drawn) | inconclusive: 15.8 µM [activator, partial curve] |
| CCOC(=O)Cc1csc(NC(=O)NC2(C(F)(F)F)Oc3cc(Cl)c(Cl)cc3O2)n1 | inconclusive: 3.54 µM [inhibitor, partial curve] |
| C/C(=N/N1CCN(c2ccccn2)CC1)c1ccc([N+](=O)[O-])cc1 | inactive |
| O=C(O)c1ccccc1C(=O)c1ccc(Oc2ccccc2)cc1 | inconclusive: 15.8 µM [activator, partial curve] |
| COc1ccc(N2C=C3C(=O)C(C)(OC(=O)CCc4ccccc4)C(=O)C=C3C=C2c2ccc(C#N)cc2)cc1 (stereo not drawn) | inconclusive: 1.41 µM [inhibitor, full curve] |
| COc1ccc(CN2CCN(Cc3ccccc3F)CC2)cc1OC | active: 15.8 µM |

| Compound | Potency |
| --- | --- |
| CCCN(CCC)CCCNC(=O)c1cn(C)c2ccc(S(=O)(=O)N(C)C3CCCCC3)cc2c1=O | inactive |
| CCN1C(=O)/C(=C/C=C2\C=CN(CC)c3ccccc32)SC1=S | inconclusive: 5 µM [inhibitor, partial curve] |
| C/C=C\C=C/C(=O)Nc1cccc(C2=NOC3(C2)C[C@H](C(N)=O)N(C(=O)Cc2ccc([N+](=O)[O-])cc2)C3)c1 (stereo partly drawn) | inactive |
| COc1ccc(/C(N)=N/OC(=O)c2cccs2)cc1OC | inactive |
| O=C1C(=O)N(c2ccccn2)C(c2ccc(Br)cc2)/C1=C(/O)c1ccc(Br)cc1 (stereo not drawn) | inconclusive: 39.8 µM [activator, single point] |
| CN1C(=O)/C(=C/C=C2/CCCN2C)N(C)C1=S | inconclusive: 17.7 µM [inhibitor, partial curve] |
| Cc1noc(C)c1-c1nccc(NCc2cccnc2)n1 | inactive |
| Cc1ccc(OCCOc2cccc3ccc(C)nc23)c([N+](=O)[O-])c1 | inconclusive: 15.8 µM [inhibitor, partial curve] |
| CC(C)(C)NC(=O)C(c1ccncc1)N(Cc1ccc(F)cc1)C(=O)c1ccc(-c2ccccc2)[nH]1 (stereo not drawn) | inactive |
| C=CCOc1ccc(/C=N/O)cc1Cl | inactive |
| Clc1ss/c(=N\c2ccccn2)c1Cl | inconclusive: 15.8 µM [inhibitor, single point] |
| CC(C)C1CCC(C(=O)NC(Cc2ccccc2)C(=O)O)CC1 (stereo not drawn) | inconclusive: 17.7 µM [activator, single point] |
| CCn1ncc(C(=O)Nc2ccc(S(=O)(=O)N3CCCC3)cc2)c1C | inconclusive: 50 µM [inhibitor, partial curve] |
| Cc1cc(C)c(-n2c(SCc3nc4ccccc4s3)n[nH]c2=O)c(C)c1 | inactive |
| CSc1nnc(C)c(/C=C/NOCc2ccc(Cl)cc2)n1 | inconclusive: 11.2 µM [inhibitor, partial curve] |
| Cc1ccc(CNCc2ccco2)cc1 | inconclusive: 31.6 µM [inhibitor, single point] |
| O=C(O)CCC(NC(=S)Nc1ccccc1)C(=O)O (stereo not drawn) | inactive |
| COc1ccc(OC)c(CN2CCN(S(=O)(=O)c3ccc(NC(C)=O)cc3)CC2)c1 | inconclusive: 12.6 µM [inhibitor, partial curve] |
| Cc1ccccc1-n1c(-c2cccnc2)n[nH]c1=S | inconclusive: 28.2 µM [inhibitor, single point] |
| Cc1cccc(C(=O)NC(=S)NNC(=O)c2ccccc2Cl)c1 | inconclusive: 4.46 µM [activator, full curve] |
| CC1CCCN(c2c([N+](=O)[O-])cc(C(=O)O)cc2[N+](=O)[O-])C1 (stereo not drawn) | inconclusive: 25.1 µM [activator, partial curve] |
| COc1ccccc1OCC#CCN1CCCC1 | inconclusive: 17.7 µM [inhibitor, partial curve] |
| CCN(CC)C(=O)C1CCN(S(=O)(=O)c2ccc3oc4ccccc4c3c2)CC1 | inactive |
| Cc1ccc(C)c(C(C)NC(=O)C2CCCC2)c1 (stereo not drawn) | inactive |
| O=C(CSc1ccc(F)cc1)N1CCOCC1 | inactive |

| Compound | Potency |
| --- | --- |
| COc1cc(Cl)ccc1NC(=O)COc1ccccc1C(=O)N1CCN(c2ccc(O)cc2)CC1 | inconclusive: 15.8 µM [inhibitor, partial curve] |
| O=C(Nc1ccccc1Cl)O/N=C(/c1ccccc1)c1ccccn1 | active: 15.8 µM |
| Cc1cc([N+](=O)[O-])nn1CC(=O)Nc1cccc2nonc12 | inconclusive: 15.8 µM [inhibitor, single point] |
| Cn1c(=N)n(CC(O)c2cccc3ccccc23)c2ccccc21 (stereo not drawn) | inconclusive: 19.9 µM [inhibitor, partial curve] |
| COc1ccc2nc3cccc(OC)c3nc2c1 | active: 1.41 µM |
| O=C(CSc1nc2ncccc2[nH]1)Nc1ccc2c(c1)OCCO2 | inconclusive: 35.5 µM [inhibitor, partial curve] |
| COc1cc(/C=C2/SC(=O)NC2=O)ccc1OCc1ccccc1 | inconclusive: 14.1 µM [inhibitor, partial curve, poor fit] |
| CC1CCC(N2CCN(S(=O)(=O)Cc3ccccc3)CC2)CC1 (stereo not drawn) | inconclusive: 22.4 µM [inhibitor, partial curve] |
| CNc1nc(-c2ccccc2)nc(-c2ccccc2)c1C#N | inactive |
| CSc1sc(C(=O)Nc2ccc(F)cc2F)c2c1C=CCC2 | inconclusive: 15.8 µM [inhibitor, partial curve] |
| O=C(CNC1CCCCCC1)Nc1ccccc1N1CCCCC1 | inconclusive: 15.8 µM [inhibitor, single point] |
| Cn1c(-c2cccc(Br)c2)cnc1NCc1ccccc1O | inconclusive: 28.2 µM [inhibitor, partial curve] |
| COc1cc(CN2CCN(Cc3cccc(OC)c3OC)CC2)cc(OC)c1 | inconclusive: 14.1 µM [inhibitor, partial curve] |
| Cc1cccc(CN2CCN(c3ncccn3)CC2)c1 | inconclusive: 28.2 µM [inhibitor, partial curve] |
| COc1cc(/C=C2\C(=O)NC(=O)N(c3ccc(C)cc3)C2=O)cc(OC)c1O | inconclusive: 15.8 µM [inhibitor, partial curve] |
| CCCCNC(=S)NNC(=O)c1cc(-c2cccnc2)nc2ccccc12 | inconclusive: 28.2 µM [activator, single point] |
| CCCC(=O)OC/C(O)=C(\C#N)c1nc2ccccc2[nH]1 | inconclusive: 17.7 µM [inhibitor, partial curve] |
| CCc1c(C)sc(NC(=S)Nc2cccnc2)c1C(=O)OC | inconclusive: 11.2 µM [inhibitor, partial curve] |
| CN(C1CCCCC1)S(=O)(=O)c1ccc2c(c1)c(=O)c(C(=O)N1CCc3ccccc3C1)cn2C | inactive |
| CC(C)N=c1scc(-c2cccs2)n1/N=C/c1ccc(O)c(O)c1O | inconclusive: 14.1 µM [inhibitor, partial curve] |
| CCN(Cc1nc2cc(OC)c(OC)cc2c(=O)[nH]1)C(=O)c1ccc(S(=O)(=O)N(C)C)cc1 | inconclusive: 17.7 µM [inhibitor, single point] |
| Cc1ccc(Nc2ncnc3ccccc23)cc1 | inconclusive: 19.9 µM [inhibitor, single point] |
| CC(=O)Nc1ccc2c(c1)C(C)(C)C(C)N2C (stereo not drawn) | inactive |
